# Assay results published in article PMC12136788.
# The list shows a part of the results.
# B1: chr2:5814250:5814251:-_ENSMUSG00000025816_ENSMUST00000102981|mus_hu|mus_mus_mus_hu_True|38_68 (ssRNA)
# RNA: GGGAGUUCUACAGUCCGACGAUCUUCCUUUCCGGUUUCUGAAUUUCUGGUAGAACUGCACAGAAUGGUUUAAUAACUUCUAAAAAUUUGAUGCCCAUGGCGGCGGCUGGGGAGGCCCAGGGGGAAACCGCGGCCUCGGCGCUGCAACAGAGGAUUGAGCAUCA
# B2: chr10:92717539:92717540:-_ENSMUSG00000008398_ENSMUST00000008542|mus_mus|FALSE|FALSE (ssRNA)
# RNA: GGGAGUUCUACAGUCCGACGAUCCUGGAAAAGUGUGUUCGGCCCUUGCAGCCUGGCAGGACUCAGUGGGGCGACAGGACUAAGGCUGCUCCAGAAGUGUAUGCUGGGCAGCAGCGGACUCGAGGCCAGAAACAGUCCACUUGGCAACAGAGGAUUGAGCAUCA
# B3: chr7:97110809:97110810:-_ENSMUSG00000030619_ENSMUST00000107234|mus_hu|FALSE|FALSE (ssRNA)
# RNA: GGGAGUUCUACAGUCCGACGAUCGCCACUCUUAGAAAGUAUCAAAUCGCCUAACCAUCGCACACAAUCAACAUAAUUCCUAUGUAUGUCUCUGGUAGAAAAAUCAGGAAAAUGGAUUUUCUGAGAAAUAAAUGGCCUGUUAGUCAACAGAGGAUUGAGCAUCA
# B4: chr6:42301883:42301884:+_ENSMUSG00000029860_ENSMUST00000070635|mus_mus|FALSE|FALSE (ssRNA)
# RNA: GGGAGUUCUACAGUCCGACGAUCCUGUGGGUGCUGCUUCUCUUGAACUAGGGGCUUCUCCUUCUGCUGAGCAUAGGUGAAGCUAGGGGGCUGAGGGGAGCCUGUGCUCACAGAAGAAGGAGCAUCCGGAGGCACCAUUUUUUGCAACAGAGGAUUGAGCAUCA
# B5: 75715086_75722569_389_CDS_ENSG00000169375_ENST00000360439|human|control|control (ssRNA)
# RNA: GGGAGUUCUACAGUCCGACGAUCUGUUGGGUGAUGAUGGCUGCUAUGAACUGCUGCUAUAGCGGGCCCAUGACUGCCGGAGCUCUGUGGCAUGGCUGAAACCUGGUAGCUGGGUGUUACAGAGUACUGAAUUCCCGUAGCUGACAACAGAGGAUUGAGCAUCA
# B6: chr2:29004620:29004621:+_ENSG00000213639_ENST00000296122|hu_hu|FALSE|FALSE (ssRNA)
# RNA: GGGAGUUCUACAGUCCGACGAUCCAAUUUAAUAUUAAAUCUUCGUUUGCAUUCAUCAUAGAAUCCAUAAAUGCGAUUGAUGCUAGCACACUCAUGGUUUCCUCUUAAGAGAAAGAAGUUCUCUGGAUAUUUGAUUUUAUAAGCCAACAGAGGAUUGAGCAUCA
# B7: chr14:92597410:92597411:+_ENSG00000165934_ENST00000298875|hu_hu|FALSE|FALSE (ssRNA)
# RNA: GGGAGUUCUACAGUCCGACGAUCGGAAUCAAUAAUAUCCAUAGAAAAGUGCUCAUCCCAGCCACAGUCCAAUAAAAAUCUAAACUCAUCAACUUGGAGAAGAUAGCAAAGGGCAGAUUCUUCUUGGACCCCAGAAAGGGUAGUCAACAGAGGAUUGAGCAUCA
# B8: chrX:101156880:101156881:-_ENSMUSG00000056537_ENSMUST00000070705|mus_mus|FALSE|FALSE (ssRNA)
# RNA: GGGAGUUCUACAGUCCGACGAUCGAAUAUGGUCCAUUCUUCAGGGCCGUUUUCUUCACCAUCAUGUAUCACUUCCUGCCUAAAUCCAAGUUAAAAUACAUGCUCUCCAUUGGUCUUCAAUGCAGCUGGGUUCUGCACGGUCCUCAACAGAGGAUUGAGCAUCA
# B9: chr2:114393739:114393740:-_ENSMUSG00000057147_ENSMUST00000102542|mus_hu|FALSE|FALSE (ssRNA)
# RNA: GGGAGUUCUACAGUCCGACGAUCGUUAGAUGAUAUCAUCUCUCUGAGCAAAUCUUCCUGGUUUCUCUGCCAAAGAUAAGCUAAAGGCUGGAGAUUAAGCCUUUUACACACAUUUUCCACUCGAAUACGCUGAUAGUCAGAAAGCAACAGAGGAUUGAGCAUCA
# B10: chr1:60041781:60041782:+_ENSMUSG00000041040_ENSMUST00000036540|mus_hu|mus_mus_mus_hu_False|28_38 (ssRNA)
# RNA: GGGAGUUCUACAGUCCGACGAUCAAGUUUACAAUAGUAAAGUAAAUGCAGUAGUGGCAAAUUUUCUUUUAUUUUCCUUCACAAAAGAAAAUCUUUAGAUCUCAGUUCAAUCCCAGAACAUAGUGAAAGCUAUAAAUUCUGACUCAACAGAGGAUUGAGCAUCA
# B11: chr1:163112212:163112213:-_ENSG00000143248_ENST00000313961|hu_hu|hu_hu_hu_mus_False|58_88 (ssRNA)
# RNA: GGGAGUUCUACAGUCCGACGAUCUUUUAUUAUCAGUAAGAGUGAGUCACAUAGUACGCAAAGUAUUGGAUACAAUAUUCUAAAGAUAAACACUAUUGGUCCAGAAUUUAAAACUUUAUGAGCGAAGUGCUGGCACAGGACUUACAACAGAGGAUUGAGCAUCA
# B12: chr18:31598358:31598359:-_ENSMUSG00000024261_ENSMUST00000025110|mus_mus|FALSE|FALSE (ssRNA)
# RNA: GGGAGUUCUACAGUCCGACGAUCAAAUACAUUUUCAUCGAAUUUACAAACACUGUGAUAUCAAACACAUUCUCAAAAAUGCUAAAGCACUGACACAAAACUUGACUCAAAGGUAAAAUUUCCAGUAGACAUUAUCUCUAACUUCAACAGAGGAUUGAGCAUCA
# B13: chr11:70698419:70698420:+_ENSMUSG00000020817_ENSMUST00000076270|mus_hu|motif|central (ssRNA)
# RNA: GGGAGUUCUACAGUCCGACGAUCUUUCAUAACAGCCUGAAGUGAAGCAACUUCUUCUCUCCACUGUCUUUUCACUUCAUCGGUAGCUUCUUGCUUGGUGUUCUCAGAGACUGUGGCAAUCGCCUUAAUAUUCUCCAUCUCUGCCAACAGAGGAUUGAGCAUCA
# B14: chr1:225611761:225611762:-_ENSG00000143815_ENST00000272163|hu_mus|hu_hu_hu_mus_True|18_18 (ssRNA)
# RNA: GGGAGUUCUACAGUCCGACGAUCCCAGGCCAUCGGCCUCUGACCACUUCACCCUCAACAAACUUCCUACUUGGCAUUUUCUAAAAUUAGUCUGGCCGCGCUCCGGCGGGAACUCCAGACGGCUCCCGACAGUCACCAGCAGCCCAACAGAGGAUUGAGCAUCA
# B15: chr10:33218917:33218918:-_ENSG00000150093_ENST00000302278|perfect_dup|motif|central (ssRNA)
# RNA: GGGAGUUCUACAGUCCGACGAUCAGAGCCUCUGGGAUUCUCUAUGUCACUUGGCUGGCAACCCUUCUUUUUCAAAGCUUCGGAAUCAUCACAUCGUGCAGAAGUAGGCAUUCCUUCUUGCAAAAAUGUCGUAUUUGUACACCACAACAGAGGAUUGAGCAUCA
# B16: chr12:109547708:109547709:+_ENSG00000076248_ENST00000242576|hu_hu|motif|central (ssRNA)
# RNA: GGGAGUUCUACAGUCCGACGAUCAGACUUCUGCAGCAGCUCAUUGGUCUUUGAAAAGUGUCUACAUCCAAAGAACCCUCGGUACACUGACAAAGGGGAGGGAUGAGCCGUCUGUAGUACAUGGUGCCGCUUCCUAUCAAUGGCCAACAGAGGAUUGAGCAUCA
# B17: chr2:166765161:166765162:+_ENSMUSG00000002718_ENSMUST00000002790|mus_hu|FALSE|FALSE (ssRNA)
# RNA: GGGAGUUCUACAGUCCGACGAUCGGAUAAACAUAUUGCUUCAAACAUGUAGUGAUUAAAGUGAGGUUUGCUUGGGUUCUUACUAACAGCUAAUAGCUUCUGUGUAAGCUGAGUGAUGAGAGUAGGGAUGUAGGGGAUUAUGGCCAACAGAGGAUUGAGCAUCA
# B18: 32415220_32417800_680_3pUTR_ENSG00000056097_ENST00000265069|human|control|control (ssRNA)
# RNA: GGGAGUUCUACAGUCCGACGAUCUGGCUGUCACUUGUCGAGUUUGCUGGGCUUGAGUAUACUGAGUUGCACCUUGGCUGUAACCUGCUUUGGGGGCUGUCUGAUAGUAAGUUUCAGCAACAGAAGGCUGAGGUUGGGCAGCGGCAACAGAGGAUUGAGCAUCA
# B19: 65268860_65273288_494_CDS_ENSG00000090487_ENST00000204566|human|control|control (ssRNA)
# RNA: GGGAGUUCUACAGUCCGACGAUCCUCGAGAUGGUCCCAAUAAACUGGAUACUGCAAAGCGAUAACCCGGUAACCCCAUCCAGUCAGAGCCAAAAUCUGCCGGAAAAAGACAUCUGCAGUUCCACUGACAGGGGGCAGGAAUAUCAACAGAGGAUUGAGCAUCA
# B20: chr2:216981417:216981418:+_ENSG00000079246_ENST00000392132|hu_hu|hu_hu_hu_mus_True|68_68 (ssRNA)
# RNA: GGGAGUUCUACAGUCCGACGAUCCUGAUACUGGUCCUUGCCAGCAAGGGCAUUAUCAGUGCCAUCUGUACCAAACAGGACUAACGCAAUCUCAUCUUUGCUCUCCGAAAAUACCUGUCGUUGGACAAACAUAGUCAUCACUUUCAACAGAGGAUUGAGCAUCA
# B21: 60560391_60582507_928_CDS_ENSMUSG00000026014_ENSMUST00000140485|mouse|control|control (ssRNA)
# RNA: GGGAGUUCUACAGUCCGACGAUCCAGAGCAACUCGGAUCUUCUCAGCUUUCAGUUUUGCUGCCUGUUCUUCCUCAGUAAUUGGCUGCCCCUGGUGUGUGGUCAAAUCAAGCUCUUGAGGGCGUGUCACUUUAUCAAUAUCCAGCAACAGAGGAUUGAGCAUCA
# B22: chr4:76721835:76721836:+_ENSG00000138768_ENST00000264904|hu_mus|hu_hu_hu_mus_True|68_68 (ssRNA)
# RNA: GGGAGUUCUACAGUCCGACGAUCGUUUGGCUGGGGUUUCUGAGACGCUCUGGAAUAUAACUCAUGUUGCUAAUAAAAUCCUAGUUUCUCUAUGAAAUUCUCUUUGCCAAUCCUCUUCUCUAUUAGUUGCUUUAGUUUCUCUUUCAACAGAGGAUUGAGCAUCA
# Target: T1, UNK ZnF1-3 (human, UniProt Q9C0B0 31-174)
# T1 sequence: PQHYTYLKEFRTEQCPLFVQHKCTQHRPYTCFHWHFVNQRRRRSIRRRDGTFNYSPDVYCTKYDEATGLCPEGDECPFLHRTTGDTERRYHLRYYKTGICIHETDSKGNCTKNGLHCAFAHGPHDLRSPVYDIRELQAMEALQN
# Assay: nsRBNS (natural sequence RNA bind-n-seq); RBNS binding buffer (assumed for nsRBNS): 25 mM Tris pH 7.5, 150 mM KCl, 3 mM MgCl2, 0.01% Triton X-100, 500 ug/ml BSA, 20 U/ml SUPERase-In, 4 C; UNK is unkempt and MSI1 is Musashi-1; names of the RNAs are library labels; protein concentration not given here; high values mean tight binding
row,Binder,binding signal
1,B1,1.8 enrichment R
2,B2,1.15 enrichment R
3,B3,1.2 enrichment R
4,B4,1.27 enrichment R
5,B5,1.03 enrichment R
6,B6,1.03 enrichment R
7,B7,1.99 enrichment R
8,B8,0.623 enrichment R
9,B9,1.12 enrichment R
10,B10,0.457 enrichment R
11,B11,1.39 enrichment R
12,B12,0.673 enrichment R
13,B13,0.293 enrichment R
14,B14,1.27 enrichment R
15,B15,0.855 enrichment R
16,B16,1.62 enrichment R
17,B17,1.86 enrichment R
18,B18,1.46 enrichment R
19,B19,1.5 enrichment R
20,B20,0.646 enrichment R
21,B21,0.875 enrichment R
22,B22,0.472 enrichment R
